# Measurements published in the supplement of paper PMC10037445.
# In all, about 2,900 compounds were measured (“NF-kB SEAP reporter activity, fold change vs agonist alone”: median about 0.99, highest 2% from about 2.6 on). The list shows a part of the results.
# Key:
# RAW-Dual [1] = test: NF-kB SEAP reporter activity, fold change vs agonist alone; cytotoxicity flag (confluency mask): cytotoxic (confluency <70% of control); higher = enhanced NF-kB activity
# In short: (§1)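 After 50 nL of library stock was delivered by pin tool to RAW-Dual macrophages (50,000 cells/well, DMEM, 384-well plates), a PRR agonist was added 1 h later and the plates were kept at 37 °C, 5% CO2. Twenty hours later, IRF was read from supernatant by QuantiLuc luminescence and NF-κB by QuantiBlue absorbance at 620 nm. Reporter activity is stated as fold change over agonist-alone wells. Wells with IncuCyte confluency under 70% of agonist controls in both mask sets were counted as cytotoxic.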
# RAW-Dual [2] = test: NF-kB SEAP reporter activity, fold change vs agonist alone; higher = enhanced NF-kB activity; conditions: library stock concentration (final ~1000-fold dilution): 10 mM
# In short: as §1
# RAW-Dual [3] = test: NF-kB SEAP reporter activity, fold change vs agonist alone; cytotoxicity flag (confluency mask): not cytotoxic; higher = enhanced NF-kB activity
# In short: as §1
# [4] = agonist: ODN 1826 (TLR9) 0.5 ug/mL
# [5] = agonist: Pam2CSK4 (TLR2/6) 0.1 ug/mL
# [6] = agonist: Pam3CSK4 (TLR2/1) 0.1 ug/mL
# [7] = cytotoxicity flag (confluency mask): cytotoxic (confluency <70% of control), agonist: Imiquimod (TLR7) […]
# [8] = cytotoxicity flag (confluency mask): cytotoxic (confluency <70% of control), agonist: MPLA (TLR4) […]
# [9] = cytotoxicity flag (confluency mask): not cytotoxic, agonist: Imiquimod (TLR7) […]
# [10] = cytotoxicity flag (confluency mask): not cytotoxic, agonist: MPLA (TLR4) […]
compound,measurement,setting,value
CC(C)COc1ccc(CNC(=O)N(Cc2ccc(F)cc2)C2CCN(C)CC2)cc1.CC(C)COc1ccc(CNC(=O)N(Cc2ccc(F)cc2)C2CCN(C)CC2)cc1.O=C(O)C(O)C(O)C(=O)O (library stock concentration (final ~1000-fold dilution): 10 mM),NF-kB SEAP reporter activity,RAW-Dual [1]; agonist: LPS (TLR4) 0.1 ug/mL,0.205
same,NF-kB SEAP reporter activity,RAW-Dual [1]; [4],0.239
same,NF-kB SEAP reporter activity,RAW-Dual [1]; [5],0.0981
same,NF-kB SEAP reporter activity,RAW-Dual [1]; [6],0.143
CC(C)COc1ccc(CNC(=O)N(Cc2ccc(F)cc2)C2CCN(C)CC2)cc1.CC(C)COc1ccc(CNC(=O)N(Cc2ccc(F)cc2)C2CCN(C)CC2)cc1.O=C(O)C(O)C(O)C(=O)O,NF-kB SEAP reporter activity,RAW-Dual [2]; [7],0.496
same,NF-kB SEAP reporter activity,RAW-Dual [2]; [8],1.23
CN1CCC(=C2c3ccccc3CCc3cccnc32)CC1.O=C(O)/C=C\C(=O)O.O=C(O)/C=C\C(=O)O (library stock concentration (final ~1000-fold dilution): 10 mM),NF-kB SEAP reporter activity,RAW-Dual [3]; agonist: LPS (TLR4) 0.1 ug/mL,0.879
same,NF-kB SEAP reporter activity,RAW-Dual [3]; [4],0.716
same,NF-kB SEAP reporter activity,RAW-Dual [3]; [5],0.99
same,NF-kB SEAP reporter activity,RAW-Dual [3]; [6],1.14
CN1CCC(=C2c3ccccc3CCc3cccnc32)CC1.O=C(O)/C=C\C(=O)O.O=C(O)/C=C\C(=O)O,NF-kB SEAP reporter activity,RAW-Dual [2]; [9],1.12
same,NF-kB SEAP reporter activity,RAW-Dual [2]; [10],0.904
CC1CCN(C(=O)CC#N)CC1N(C)c1ncnc2[nH]ccc12.O=C(O)CC(O)(CC(=O)O)C(=O)O (centres undefined),NF-kB SEAP reporter activity,RAW-Dual [2]; [10],1.04
CC1CCN(C(=O)CC#N)CC1N(C)c1ncnc2[nH]ccc12.O=C(O)CC(O)(CC(=O)O)C(=O)O (centres undefined) (library stock concentration (final ~1000-fold dilution): 10 mM),NF-kB SEAP reporter activity,RAW-Dual [3]; agonist: LPS (TLR4) 0.1 ug/mL,1.13
same,NF-kB SEAP reporter activity,RAW-Dual [3]; [4],1.26
same,NF-kB SEAP reporter activity,RAW-Dual [3]; [5],1.52
same,NF-kB SEAP reporter activity,RAW-Dual [3]; [6],1.11
CN1C(=O)C(C)(C)Oc2c(-c3cn(C)c(=O)c4[nH]ccc34)cc(S(C)(=O)=O)cc21 (library stock concentration (final ~1000-fold dilution): 10 mM),NF-kB SEAP reporter activity,RAW-Dual [1]; agonist: LPS (TLR4) 0.1 ug/mL,2.16
same,NF-kB SEAP reporter activity,RAW-Dual [1]; [4],1.73
same,NF-kB SEAP reporter activity,RAW-Dual [1]; [5],0.658
same,NF-kB SEAP reporter activity,RAW-Dual [1]; [6],1.99
CN1C(=O)C(C)(C)Oc2c(-c3cn(C)c(=O)c4[nH]ccc34)cc(S(C)(=O)=O)cc21,NF-kB SEAP reporter activity,RAW-Dual [2]; [7],1.56
same,NF-kB SEAP reporter activity,RAW-Dual [2]; [8],2.34
CN(C)C/C=C/C(=O)Nc1cc2c(Nc3ccc(F)c(Cl)c3)ncnc2cc1OC1CCOC1.O=C(O)/C=C\C(=O)O.O=C(O)/C=C\C(=O)O (centres undefined) (library stock concentration (final ~1000-fold dilution): 10 mM),NF-kB SEAP reporter activity,RAW-Dual [1]; agonist: LPS (TLR4) 0.1 ug/mL,0.206
same,NF-kB SEAP reporter activity,RAW-Dual [1]; [4],0.178
same,NF-kB SEAP reporter activity,RAW-Dual [1]; [5],0.258
same,NF-kB SEAP reporter activity,RAW-Dual [1]; [6],0.158
CN(C)C/C=C/C(=O)Nc1cc2c(Nc3ccc(F)c(Cl)c3)ncnc2cc1OC1CCOC1.O=C(O)/C=C\C(=O)O.O=C(O)/C=C\C(=O)O (centres undefined),NF-kB SEAP reporter activity,RAW-Dual [2]; [7],1.3
same,NF-kB SEAP reporter activity,RAW-Dual [2]; [8],0.365
CC(C)=CCC/C(C)=C/Cc1c(O)c(CC=C(C)C)c2c(c1O)C(=O)C1=CC3CC4C(C)(C)OC(C/C=C(/C)C(=O)O)(C3=O)C14O2 (centres undefined),NF-kB SEAP reporter activity,RAW-Dual [2]; [7],1.45
same,NF-kB SEAP reporter activity,RAW-Dual [2]; [8],1.6
CC(C)=CCC/C(C)=C/Cc1c(O)c(CC=C(C)C)c2c(c1O)C(=O)C1=CC3CC4C(C)(C)OC(C/C=C(/C)C(=O)O)(C3=O)C14O2 (centres undefined) (library stock concentration (final ~1000-fold dilution): 10 mM),NF-kB SEAP reporter activity,RAW-Dual [1]; agonist: LPS (TLR4) 0.1 ug/mL,0.888
same,NF-kB SEAP reporter activity,RAW-Dual [1]; [4],1.04
same,NF-kB SEAP reporter activity,RAW-Dual [1]; [5],0.553
same,NF-kB SEAP reporter activity,RAW-Dual [1]; [6],0.619
CCOC(=O)Nc1cc(-c2ccc(C)c(NS(C)(=O)=O)c2)nn2c(C)nnc12 (library stock concentration (final ~1000-fold dilution): 10 mM),NF-kB SEAP reporter activity,RAW-Dual [3]; agonist: LPS (TLR4) 0.1 ug/mL,3.81
COc1cc2c3cc1Oc1c(OC)c(OC)cc4c1[C@@H](Cc1ccc(O)c(c1)Oc1ccc(cc1)C[C@@H]3N(C)CC2)N(C)CC4,NF-kB SEAP reporter activity,RAW-Dual [2]; [9],0.961
same,NF-kB SEAP reporter activity,RAW-Dual [2]; [10],1.04
COc1cc2c3cc1Oc1c(OC)c(OC)cc4c1[C@@H](Cc1ccc(O)c(c1)Oc1ccc(cc1)C[C@@H]3N(C)CC2)N(C)CC4 (library stock concentration (final ~1000-fold dilution): 10 mM),NF-kB SEAP reporter activity,RAW-Dual [3]; agonist: LPS (TLR4) 0.1 ug/mL,1.15
same,NF-kB SEAP reporter activity,RAW-Dual [3]; [4],1.13
same,NF-kB SEAP reporter activity,RAW-Dual [3]; [5],1.12
same,NF-kB SEAP reporter activity,RAW-Dual [3]; [6],1.04
O=S(=O)(O)c1ccc2cc(N=Nc3cc(S(=O)(=O)O)c4cccnc4c3O)ccc2c1,NF-kB SEAP reporter activity,RAW-Dual [2]; [9],0.525
same,NF-kB SEAP reporter activity,RAW-Dual [2]; [10],0.934
O=S(=O)(O)c1ccc2cc(N=Nc3cc(S(=O)(=O)O)c4cccnc4c3O)ccc2c1 (library stock concentration (final ~1000-fold dilution): 10 mM),NF-kB SEAP reporter activity,RAW-Dual [3]; agonist: LPS (TLR4) 0.1 ug/mL,0.838
same,NF-kB SEAP reporter activity,RAW-Dual [3]; [4],0.925
same,NF-kB SEAP reporter activity,RAW-Dual [3]; [5],0.921
same,NF-kB SEAP reporter activity,RAW-Dual [3]; [6],1.08
COc1cc2c(Oc3ccc4[nH]c(C)cc4c3F)ncnc2cc1OCCCN1CCCC1 (library stock concentration (final ~1000-fold dilution): 10 mM),NF-kB SEAP reporter activity,RAW-Dual [1]; agonist: LPS (TLR4) 0.1 ug/mL,0.671
same,NF-kB SEAP reporter activity,RAW-Dual [1]; [4],0.212
same,NF-kB SEAP reporter activity,RAW-Dual [1]; [5],1.03
same,NF-kB SEAP reporter activity,RAW-Dual [1]; [6],1.37
COc1cc2c(Oc3ccc4[nH]c(C)cc4c3F)ncnc2cc1OCCCN1CCCC1,NF-kB SEAP reporter activity,RAW-Dual [2]; [7],1.98
same,NF-kB SEAP reporter activity,RAW-Dual [2]; [8],1.96
CCc1nn(CCCN2CCN(c3cccc(Cl)c3)CC2)c(=O)n1CCOc1ccccc1.Cl (library stock concentration (final ~1000-fold dilution): 10 mM),NF-kB SEAP reporter activity,RAW-Dual [3]; agonist: LPS (TLR4) 0.1 ug/mL,0.981
same,NF-kB SEAP reporter activity,RAW-Dual [3]; [4],0.799
same,NF-kB SEAP reporter activity,RAW-Dual [3]; [5],0.822
same,NF-kB SEAP reporter activity,RAW-Dual [3]; [6],0.646
CCc1nn(CCCN2CCN(c3cccc(Cl)c3)CC2)c(=O)n1CCOc1ccccc1.Cl,NF-kB SEAP reporter activity,RAW-Dual [2]; [10],0.878
CC(NC(=O)C(O)c1cc(F)cc(F)c1)C(=O)NC1C(=O)N(C)c2ccccc2-c2ccccc21 (centres undefined),NF-kB SEAP reporter activity,RAW-Dual [2]; [9],0.951
same,NF-kB SEAP reporter activity,RAW-Dual [2]; [10],0.867
CC(NC(=O)C(O)c1cc(F)cc(F)c1)C(=O)NC1C(=O)N(C)c2ccccc2-c2ccccc21 (centres undefined) (library stock concentration (final ~1000-fold dilution): 10 mM),NF-kB SEAP reporter activity,RAW-Dual [3]; agonist: LPS (TLR4) 0.1 ug/mL,1.3
same,NF-kB SEAP reporter activity,RAW-Dual [3]; [4],0.848
same,NF-kB SEAP reporter activity,RAW-Dual [3]; [5],0.759
same,NF-kB SEAP reporter activity,RAW-Dual [3]; [6],0.722
CC(C)n1cc(-c2ccc3c(c2)N(C)CC3)c2c(NS(=O)(=O)c3ccn(C)n3)ccnc21 (library stock concentration (final ~1000-fold dilution): 10 mM),NF-kB SEAP reporter activity,RAW-Dual [3]; agonist: LPS (TLR4) 0.1 ug/mL,1.25
same,NF-kB SEAP reporter activity,RAW-Dual [3]; [4],1.12
same,NF-kB SEAP reporter activity,RAW-Dual [3]; [5],1.14
same,NF-kB SEAP reporter activity,RAW-Dual [3]; [6],1.07
